The other results are listed elsewhere or left out. These are noisy estimates, calculated here from bound and input reads.
These sequences were tested against T1, Pho4 (S. cerevisiae) (UniProt P07270) (assay: relative binding free energy (BET-seq); higher = weaker binding). Details: reference: library average.
T1 sequence: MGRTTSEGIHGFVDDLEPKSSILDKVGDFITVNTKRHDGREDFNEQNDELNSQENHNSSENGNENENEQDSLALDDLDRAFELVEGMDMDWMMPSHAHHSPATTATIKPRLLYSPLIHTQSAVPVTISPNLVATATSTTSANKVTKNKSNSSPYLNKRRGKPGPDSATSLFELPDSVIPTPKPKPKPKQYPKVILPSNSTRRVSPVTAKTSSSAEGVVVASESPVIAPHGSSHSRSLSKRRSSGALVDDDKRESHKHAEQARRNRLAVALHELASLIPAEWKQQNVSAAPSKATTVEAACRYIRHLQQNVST

Q: For AATGTCACGTGTAGCG, which “relative binding free energy” value is on record?
A: 0.502 kJ/mol

Q: How did the “relative binding free energy” value turn out when GTTATCACGTGTATCA was run?
A: 0.879 kJ/mol

Q: How did the “relative binding free energy” value turn out when AGCAACACGTGGGTTT was run?
A: 0 kJ/mol

Q: TAGGGCACGTGAGGAA was tested. Which “relative binding free energy” value did it give?
A: 0.46 kJ/mol

Q: ATGGCCACGTGTGTAG was tested. Which “relative binding free energy” value did it give?
A: 0.209 kJ/mol

Q: With GGATGCACGTGAAATG as the sequence, how does the “relative binding free energy” value read?
A: 1.13 kJ/mol

Q: Which “relative binding free energy” value does the source give for GGAGCCACGTGTGTGT here?
A: -0.251 kJ/mol

Q: With AGCCGCACGTGGGGGG as the sequence, how does the “relative binding free energy” value read?
A: -1.21 kJ/mol

Q: Which “relative binding free energy” value does the source give for TTTAACACGTGGGCGT here?
A: -0.711 kJ/mol

Q: How did the “relative binding free energy” value turn out when TTCGGCACGTGAGAGT was run?
A: 1 kJ/mol

Q: For GAGGGCACGTGGAGGA, which “relative binding free energy” value is on record?
A: -0.167 kJ/mol

Q: How did the “relative binding free energy” value turn out when ATGGGCACGTGTGGGG was run?
A: 0.0418 kJ/mol

Q: Which “relative binding free energy” value does the source give for GCTTCCACGTGTGTGT here?
A: 0.0418 kJ/mol

Q: ATGAGCACGTGGATTT was tested. Which “relative binding free energy” value did it give?
A: -0.0418 kJ/mol

Q: GTAGGCACGTGTAAGA was tested. Which “relative binding free energy” value did it give?
A: 0.628 kJ/mol

Q: For ATGGTCACGTGGGATA, which “relative binding free energy” value is on record?
A: -0.377 kJ/mol

Q: For TCTGTCACGTGGTTCA, which “relative binding free energy” value is on record?
A: 0.0837 kJ/mol

Q: With CGAAGCACGTGGTAGT as the sequence, how does the “relative binding free energy” value read?
A: -0.167 kJ/mol

Q: GTATACACGTGTAGAG was tested. Which “relative binding free energy” value did it give?
A: 0.418 kJ/mol

Q: For ATATTCACGTGGGTAG, which “relative binding free energy” value is on record?
A: 0.46 kJ/mol

Q: With GATTACACGTGAGTGG as the sequence, how does the “relative binding free energy” value read?
A: 1.38 kJ/mol

Q: Which “relative binding free energy” value does the source give for GTGCTCACGTGAGGGT here?
A: 1.38 kJ/mol

Q: With GTTGCCACGTGCGGGC as the sequence, how does the “relative binding free energy” value read?
A: -0.0837 kJ/mol

Q: Which “relative binding free energy” value does the source give for ATTTACACGTGGGAGA here?
A: 0.795 kJ/mol

Q: Which “relative binding free energy” value does the source give for TGGGTCACGTGGCTGT here?
A: 0.0837 kJ/mol

Q: With TGGACCACGTGTGATG as the sequence, how does the “relative binding free energy” value read?
A: 0.0837 kJ/mol

Q: With TGTGGCACGTGGGCCC as the sequence, how does the “relative binding free energy” value read?
A: -0.711 kJ/mol

Q: Which “relative binding free energy” value does the source give for TGTTCCACGTGTGTGG here?
A: 0.126 kJ/mol

Q: For TAGAACACGTGTTTGT, which “relative binding free energy” value is on record?
A: 0.126 kJ/mol

Q: Which “relative binding free energy” value does the source give for GTTGACACGTGCTAGG here?
A: -0.335 kJ/mol

Q: How did the “relative binding free energy” value turn out when AAGATCACGTGTGTAA was run?
A: 1 kJ/mol

Q: Which “relative binding free energy” value does the source give for ATTCTCACGTGAGAGG here?
A: 1.26 kJ/mol

Q: How did the “relative binding free energy” value turn out when TATTGCACGTGGTGCA was run?
A: -0.335 kJ/mol

Q: GAAGGCACGTGCGGGG was tested. Which “relative binding free energy” value did it give?
A: -0.92 kJ/mol

Q: For ATTGACACGTGTGGAG, which “relative binding free energy” value is on record?
A: -0.126 kJ/mol

Q: AATGTCACGTGGGTCT was tested. Which “relative binding free energy” value did it give?
A: 0.126 kJ/mol

Q: GGTTACACGTGCCTGG was tested. Which “relative binding free energy” value did it give?
A: 0.209 kJ/mol

Q: How did the “relative binding free energy” value turn out when TCGGGCACGTGACTTT was run?
A: 0.502 kJ/mol

Q: AGTTGCACGTGCATTA was tested. Which “relative binding free energy” value did it give?
A: -0.335 kJ/mol

Q: With GTAAGCACGTGTCGTG as the sequence, how does the “relative binding free energy” value read?
A: -0.251 kJ/mol

Q: Which “relative binding free energy” value does the source give for AATGGCACGTGCGTGA here?
A: -0.753 kJ/mol

Q: Which “relative binding free energy” value does the source give for AGCAGCACGTGGGAGG here?
A: -1.09 kJ/mol

Q: For GTTGCCACGTGGGTGA, which “relative binding free energy” value is on record?
A: -0.711 kJ/mol

Q: GGAGACACGTGGGTAA was tested. Which “relative binding free energy” value did it give?
A: -0.0418 kJ/mol

Q: TGTGTCACGTGCGTTG was tested. Which “relative binding free energy” value did it give?
A: -0.209 kJ/mol

Q: Which “relative binding free energy” value does the source give for TTAGTCACGTGCAGTG here?
A: 0.502 kJ/mol

Q: For CCTGGCACGTGGTATT, which “relative binding free energy” value is on record?
A: -0.628 kJ/mol

Q: TGCTCCACGTGTGTTT was tested. Which “relative binding free energy” value did it give?
A: -0.126 kJ/mol

Q: CTATGCACGTGGTAGG was tested. Which “relative binding free energy” value did it give?
A: -0.962 kJ/mol

Q: Which “relative binding free energy” value does the source give for GTTAGCACGTGTGCGT here?
A: -0.335 kJ/mol

Q: With GGGGGCACGTGACAAG as the sequence, how does the “relative binding free energy” value read?
A: -0.753 kJ/mol

Q: For AAGTTCACGTGTACGG, which “relative binding free energy” value is on record?
A: 1.05 kJ/mol

Q: With TATTCCACGTGTGGCG as the sequence, how does the “relative binding free energy” value read?
A: 0.377 kJ/mol

Q: For TGTAGCACGTGGACTG, which “relative binding free energy” value is on record?
A: -0.753 kJ/mol

Q: TGAGACACGTGGTGGA was tested. Which “relative binding free energy” value did it give?
A: -0.335 kJ/mol

Q: With TGCGGCACGTGTAAAG as the sequence, how does the “relative binding free energy” value read?
A: 0.0837 kJ/mol

Q: Which “relative binding free energy” value does the source give for CATGTCACGTGTAATG here?
A: 0.879 kJ/mol

Q: With TTTATCACGTGATCAT as the sequence, how does the “relative binding free energy” value read?
A: 1.38 kJ/mol

Q: Which “relative binding free energy” value does the source give for GGCTTCACGTGGTGGC here?
A: 0.92 kJ/mol

Q: How did the “relative binding free energy” value turn out when AATATCACGTGTGTCT was run?
A: 0.837 kJ/mol

Q: How did the “relative binding free energy” value turn out when CAGGGCACGTGTGCGG was run?
A: -0.418 kJ/mol

Q: With ACAATCACGTGTTAGG as the sequence, how does the “relative binding free energy” value read?
A: 0.879 kJ/mol

Q: How did the “relative binding free energy” value turn out when CTTAGCACGTGGTCGT was run?
A: -0.418 kJ/mol

Q: How did the “relative binding free energy” value turn out when ACGGGCACGTGTAGAG was run?
A: -0.377 kJ/mol

Q: For TAGTGCACGTGGTTGG, which “relative binding free energy” value is on record?
A: -0.251 kJ/mol

Q: How did the “relative binding free energy” value turn out when TAAGTCACGTGTGAGC was run?
A: 0.753 kJ/mol

Q: AAGTGCACGTGAGTTT was tested. Which “relative binding free energy” value did it give?
A: 0.879 kJ/mol

Q: ACGCTCACGTGGTTGG was tested. Which “relative binding free energy” value did it give?
A: 0.586 kJ/mol

Q: AGGCACACGTGGTTAT was tested. Which “relative binding free energy” value did it give?
A: 0.126 kJ/mol

Q: TTTTACACGTGAGGCT was tested. Which “relative binding free energy” value did it give?
A: 1.63 kJ/mol

Q: Which “relative binding free energy” value does the source give for GGGAGCACGTGGATTG here?
A: 0.502 kJ/mol

Q: How did the “relative binding free energy” value turn out when TAGTTCACGTGGGCAG was run?
A: 0.753 kJ/mol

Q: With TAAACCACGTGGTGGG as the sequence, how does the “relative binding free energy” value read?
A: -0.544 kJ/mol
